Measurements from PubChem BioAssay AID1745853 (National Center for Advancing Translational Sciences (NCATS), 2022).
This is one part of the list. The main result of the screen is listed elsewhere. These columns were measured beside it and carry no call.

Key:
Assay in all cases: Primary Screen for Target Class Profiling of Small Molecule Inhibitors of Methyltransferases
[1] = target: Glycine N-methyltransferase (Homo sapiens) (UniProt Q14749); settings: purified enzyme, MTase-Glo SAH luminescence; measured here: GNMT inhibition; at 40 µM; stronger effect = lower value
How it was run: (§1)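 Each enzyme was assayed with SAM and its substrate. SAH formation detected by MTase-Glo luminescence; single-point 40 uM screen[…].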

[2] = target: Guanidinoacetate N-methyltransferase (Homo sapiens) (UniProt Q14353); settings: purified enzyme, MTase-Glo SAH luminescence; measured here: GAMT inhibition; at 40 µM; stronger effect = lower value
How it was run: as §1

[3] = target: Histamine N-methyltransferase (Homo sapiens) (UniProt P50135); settings: purified enzyme, MTase-Glo SAH luminescence; measured here: HNMT inhibition; at 40 µM; stronger effect = lower value
How it was run: as §1

[4] = target: Nicotinamide N-methyltransferase (Homo sapiens) (UniProt P40261); settings: purified enzyme, MTase-Glo SAH luminescence; measured here: NNMT inhibition; at 40 µM; stronger effect = lower value
How it was run: as §1

[5] = target: Phenylethanolamine N-methyltransferase (Homo sapiens) (UniProt P11086); settings: purified enzyme, MTase-Glo SAH luminescence; measured here: PNMT inhibition; at 40 µM; stronger effect = lower value
How it was run: as §1
% is set by controls: 0 for no effect and ±100 for the full control effect.

Row | SMILES | activity change, negative = inhibition [1] [%] | activity change, negative = inhibition [2] [%] | activity change, negative = inhibition [3] [%] | activity change, negative = inhibition [4] [%] | activity change, negative = inhibition [5] [%]
1 | CN1CCN(CCCNC(=O)C2(CCO)CCN(Cc3ccccc3)C2)CC1 (stereo not given) | -2.69 | -0.965 | -0.758 | 3.8 | 2.27
2 | COc1ncccc1-c1n[nH]c2c1CC(=O)N(Cc1ccccc1)C2 | -8.68 | -10.7 | -3.72 | -17.9 | -6.55
3 | O=C(NC1CC1)[C@@H]1CN(CCCc2ccccc2)C[C@H]1CO | -10.4 | -4.85 | -8.49 | -6.93 | -10.6
4 | CC1CCCCC1NC(=O)C1(C)Cn2c(cc3sccc32)C(=O)N1Cc1ccc(Cl)cc1 (stereo not given) | 4.58 | -33 | 6.96 | 1.14 | 1.49
5 | Cc1oc(-c2ccccc2)nc1CN1CCCC(C(=O)N2CCC(c3nc(C(=O)N4CCCC4)c(C)o3)CC2)C1 (stereo not given) | -10.8 | -6.71 | -9.51 | -19.4 | -6.77
6 | COCc1nc(CCNS(=O)(=O)c2cccc(OC)c2)no1 | -2.22 | 0.796 | 0.33 | 0.399 | 3.28
7 | O=C(O)c1ccnc2cc(C(OCC3CCC(F)(F)CC3)c3ccccc3Cl)[nH]c12 (stereo not given) | 2.94 | 5.47 | 4.93 | -16.9 | -1.37
8 | C=CCC/C=C/C#CCCCCCCCC[C@H]1C(=O)O[C@H](C)[C@@H]1O | 6.45 | 1.67 | 9.99 | -14.4 | -4.54
9 | COc1cc(NS(=O)(=O)c2cc3c(cc2Cl)n(C)c(=O)n3C)cc(OC)c1 | 11 | 0 | 10.9 | 2.71 | 9.17
10 | CCCn1c(=O)c2ccccc2n2c(SCC(=O)Nc3ccc(C(C)C)cc3)nnc12 | -4.32 | 0.53 | 6.04 | -10.4 | 3.45
11 | C[C@@H]1CC[C@]2(C(=O)O)CC[C@]3(C)C(=CCC4[C@@]5(C)C[C@@H](O)[C@@H](O)C(C)(C)C5CC[C@]43C)C2[C@]1(C)O (stereo not given in full) | 0.031 | -1.3 | 6.4 | -11.1 | -5.6
12 | CCN(CC)CCNC(=O)CCCc1nnc2n3nc(-c4ccccc4)nc3c3ccccc3n12 | -6.94 | 1.92 | -62 | 6.7 | -9.16
13 | CC1CCC(NC(=O)C2(C)Cn3c(cc4sccc43)C(=O)N2Cc2ccccc2Cl)CC1 (stereo not given) | -0.858 | 0 | 2.96 | -2.28 | 0.057
14 | Cc1cc(C(=O)N2CCC(OCCOc3ccc(F)cc3)CC2)nn1C | -2.06 | -1.03 | 1.68 | -4.34 | -2.7
15 | CC(C)CN1CCN(c2nc(CCN)nc3ccccc23)CC1CCO (stereo not given) | -6.47 | -8.58 | -4.04 | -17.5 | -19.4
16 | COc1ccccc1Oc1c(NS(=O)(=O)c2ccc(C)cn2)nc(-c2ccncc2)nc1OC | -9.11 | 1.8 | 6.76 | -16.8 | -4.23
17 | Cc1ccc(CN2C(=O)c3ccc(-c4ccco4)n3CC2(C)C(=O)NC2CCC(C)CC2)cc1 (stereo not given) | -1.23 | 0 | 1.85 | -1.82 | -3.05
